We go through 6 molecules from the supplement of paper PMC11383711.

The labels stand for the following.
B1: 240-14-IgA-2F02 (protein)
chain 1: EVQLLESGGGLVQPGGSLRLSCAASGFTFSTYAMSWVRQAPGKGLEWVSTISGSGGSTYDAESVKGRFTISRDNSKNTLYLQMNSLRAEDTAVYYCAKEGGDFWSGYYANWFDPWGQGTLVTVSS
chain 2: QSALTQPRSVSGSPGQSVTISCTGTRSDVGGYNYVSWYQQHPGKAPKVIIYDVKKRPSGVPDRFSGSKSGNTASLTISGLQAEDEADYYCSAFAGSHTLFGGGTKVTVL
B2: 014-10-3A02 (protein)
chain 1: VQLVQSGAEVKKPGASVKVSCKASGYTFTGYYIQWVRQAPGQGLEWMGWINPNSGGTNYAQSFQGRVTMTRDTSVNTAYMELNRLKSDDTAIYYCARDDYPDYEVYWGQGTLVTVSS
chain 2: EIVLTQSPATLSLSPGERATLSCRASQSVSSYLDWYQQKPGQAPRLLIYDASTRATGIPSKFSGGGSGTDFTLTISSLEPEDFAVYYCQQRGNWLWTFGQGTKVEIK
B3: W85-3C08 (protein)
chain 1: ASLVEFWGEGLVPAGGPLRLSCAASGFSVSSNSMSWVRQAPGRGLEWVSLIYTGGSTVYADSVRGRFTISRDNFKNTLLLQMNSLRTEDTAVYYCARAERDGDYEGNWGQGTLVTVSA
chain 2: EIVLTQSPATLSLSPGERATLSCRASQSVSSYLAWYQQKPGQAPRLLIYGASNRATGIPARFSGSGSGTDFTLTISSLEPEDFALYYCQQRSNWITFGQGTRLEIK
B4: AG10-A05 (protein)
chain 1: VQLQESGPRLIKPSETLSLTCTVSGGSISSSPYFWGWIRQPPGKGLEWIGSSYYSGNTDYNPSLKSRVTISVDTSKNQFSLKLRSVTAADTAVYYCARRTHDYGDYYYWFDPWGQGTLVTVSS
chain 2: DIQMTQSPSSLSASVGDRVTITCRTSRTIRNYLNWYQQKPGKAPNLLIYTASTLQSGVPSRFNGSGSGTDFTLTISSLQPEDFATYYCQQSYYFGPGTKVDIK
B5: 008-10-1C03 (protein)
chain 1: EVQLVESGGGLVQPGGSLRLSCEASGFTFSSYWMSWVRQAPGKGLEWVAVMDQDGSDIYYVDSVKGRFTISRDNAKNSLSLQMNSLRAEDTAVYYCARDYWRSGEYWGQGALVTVSS
chain 2: EIVLTQSPATLSLSPGERATLSCRASQSVSSYLAWYQQRPGQAPRLLIHDASNRATGIPARFSGSGSGTDFTLTISSLEPEDFAVYYCQQGNKWPRTFGQGTKVEIK
B6: SFV019-4E01 (protein)
chain 1: QVQLQESGPGLLKPSETLSLTCTVSGGSISKYYWTWIRQPPGKTLEWIGYVHYAFYIGATNYNPSLKSRVTISVDTAKNQVSLRLTSVTAADTAVYYCVRADGDSEGFGYHYGMDVWGRGTTVTVSS
chain 2: DIQMTQSPSSLSASVGDRVTITCRASQGIGNDLAWYQQKLGTAPKRLIYDASSLQSGVPSRFSGSGSGTEFTLTISSLQPEDFATYYCLQHNDYPLTFGQGTKVEIK

This is one part of the list. Binding of human antibodies (heavy:light variable regions, tested as scFv in one mRNA-display pool) to influenza hemagglutinin, with or without the stem antibody CR9114 bound first. Score = (mean enrichment − median) / interquartile range of that screen; higher = more enriched, 0 = typical non-binder. Active = above the paper's cut-off per screen: stems 28; unblocked H1 Solomon Islands 5, H1 Michigan 3, H3 5, H5 19, H7 2.85, both B 5; blocked 9, 7, H5 10, H7 10, B Phuket 10, B Lee 11.5. Scores are scaled within each screen and are no affinities; replicates correlate at about 0.6 to 0.9, and antibodies rare in the pool are noisier.

One assay concerns the target Influenza A H1N1 A/Michigan/45/2015 hemagglutinin ectodomain. The assay can be described thus: mRNA display binding score; higher = more enriched on the antigen. Particulars: antigen blocked with: 2 µM CR9114 IgG. The method, then: (§1)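 A pool of natively paired antibodies, displayed as scFv on mRNA, was selected once on antigen-coated beads and sequenced before and after; two replicates.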
In the case of B1, the “mRNA display binding score” value is inactive: -0.383.
The same measure, in the same setting: next, B2: active: 240; B3: inactive: 0.0552.
Consider B4, for which the “mRNA display binding score” value is inactive: 0.344.
As for B5, the “mRNA display binding score” value was inactive: -0.208.
As for B6, the “mRNA display binding score” value is inactive: 0.193.

Staying with this assay, now noted: antigen blocked with: nothing.
Turning to B1, the “mRNA display binding score” value is inactive: -0.726.
The same measure, in the same setting: the figure for B2 is active: 10.5; for B3 it is inactive: 0.184; for B4 it is inactive: 0.32.
With B5, the “mRNA display binding score” value is inactive: -0.371.
Consider B6, for which the “mRNA display binding score” value is inactive: 0.793.

The target of a further assay is Influenza A H1N1 A/Solomon Islands/3/2006 hemagglutinin ectodomain. Described as above. Particulars: antigen blocked with: 2 µM CR9114 IgG. How it is done: as §1
In the case of B1, the “mRNA display binding score” value was inactive: -0.444.
Turning to B2, the “mRNA display binding score” value is inactive: 1.13.
Regarding B3, the “mRNA display binding score” value was inactive: -0.138.
For B4, the “mRNA display binding score” value is inactive: 0.282.
On to B5, for which the “mRNA display binding score” value is inactive: -0.421.
For the molecule B6, the “mRNA display binding score” value was inactive: -0.00925.

The assay is the same for the next values; noted with them: antigen blocked with: nothing.
In the case of B1, the “mRNA display binding score” value was inactive: -0.546.
As to B2, the “mRNA display binding score” value is inactive: 0.128.
With B3, the “mRNA display binding score” value was inactive: -0.111.
The same measure, in the same setting: the figure for B4 is inactive: 0.466.
B5: the “mRNA display binding score” value is inactive: -0.24.
Regarding B6, the “mRNA display binding score” value is inactive: 0.68.

The target of a further assay is Influenza A H3N2 A/Singapore/INFIMH-16-0019/2016 hemagglutinin ectodomain. The assay is described as above. Particulars: antigen blocked with: nothing. The method, then:
as §1
As for B1, the “mRNA display binding score” value was active: 72.7.
As to B2, the “mRNA display binding score” value is inactive: 0.362.
On the same count and under the same terms, next, B3: inactive: 0.402.
On to B4, for which the “mRNA display binding score” value is inactive: 0.171.
As to B5, the “mRNA display binding score” value is inactive: -0.421.
On to B6, for which the “mRNA display binding score” value is inactive: 0.8.

In the next assay the target is Influenza A H5N1 A/Qinghai/1A/2005 hemagglutinin ectodomain. The assay is described as above. Particulars: antigen blocked with: 2 µM CR9114 IgG. How it is done: as §1
On to B1, for which the “mRNA display binding score” value was inactive: -0.827.
With B2, the “mRNA display binding score” value is inactive: 0.51.
As for B3, the “mRNA display binding score” value was inactive: -0.495.
With B4, the “mRNA display binding score” value is inactive: 0.139.
For the molecule B5, the “mRNA display binding score” value was inactive: -0.602.
Same read-out and setting: the figure for B6 is inactive: 0.211.

Staying with this assay, now noted: antigen blocked with: nothing.
Take B1: the “mRNA display binding score” value was inactive: -0.295.
Take B2: the “mRNA display binding score” value was inactive: 0.576.
As to B3, the “mRNA display binding score” value was inactive: -0.258.
As for B4, the “mRNA display binding score” value was inactive: 0.368.
On the same count and under the same terms, next, B5: inactive: -0.269; B6: inactive: 0.323.

The target of a further assay is Influenza A H7N9 A/Shanghai/2/2013 hemagglutinin ectodomain. Described as above. Particulars: antigen blocked with: 2 µM CR9114 IgG. How it is done: as §1
As to B1, the “mRNA display binding score” value is inactive: -0.572.
Consider B2, for which the “mRNA display binding score” value was inactive: 0.98.
Take B3: the “mRNA display binding score” value was inactive: 0.118.
With B4, the “mRNA display binding score” value was inactive: -0.235.
As for B5, the “mRNA display binding score” value is inactive: -0.0498.
With B6, the “mRNA display binding score” value is inactive: -0.596.

The same assay, now with this note: antigen blocked with: nothing.
As to B1, the “mRNA display binding score” value was inactive: -0.618.
In the case of B2, the “mRNA display binding score” value is inactive: 1.61.
Turning to B3, the “mRNA display binding score” value is inactive: 0.587.
Still for that read-out and setting: next, B4: inactive: 0.291; B5: inactive: -0.325; B6: inactive: 0.712.

A further assay deals with Influenza B/Lee/1940 hemagglutinin ectodomain. Described as above. Particulars: antigen blocked with: 2 µM CR9114 IgG. The method, then: as §1
As to B1, the “mRNA display binding score” value is inactive: -0.767.
In the case of B2, the “mRNA display binding score” value is inactive: 0.176.
B3: the “mRNA display binding score” value was inactive: 0.083.
B4: the “mRNA display binding score” value is inactive: -0.267.
With B5, the “mRNA display binding score” value is inactive: -0.0386.
In the case of B6, the “mRNA display binding score” value is inactive: -0.34.

Still in this assay, the particulars now being: antigen blocked with: nothing.
For the molecule B1, the “mRNA display binding score” value is inactive: -0.117.
In the case of B2, the “mRNA display binding score” value is inactive: 0.
Regarding B3, the “mRNA display binding score” value is inactive: -0.202.
Consider B4, for which the “mRNA display binding score” value was inactive: 0.0227.
B5: the “mRNA display binding score” value was inactive: -0.319.
Turning to B6, the “mRNA display binding score” value was inactive: -0.0825.

The target in another assay is Influenza B/Phuket/3073/2013 hemagglutinin ectodomain. The assay is described as above. Particulars: antigen blocked with: 2 µM CR9114 IgG. The method, then: as §1
On to B1, for which the “mRNA display binding score” value is inactive: -0.456.
Consider B2, for which the “mRNA display binding score” value was inactive: 0.965.
Consider B3, for which the “mRNA display binding score” value is inactive: 0.0136.
Same read-out and setting: next, B4: inactive: -0.308; B5: inactive: -0.116; B6: inactive: -0.341.

Staying with this assay, now noted: antigen blocked with: nothing.
In the case of B1, the “mRNA display binding score” value was inactive: -0.419.
For B2, the “mRNA display binding score” value is inactive: 0.366.
Still for that read-out and setting: next, B3: inactive: -0.152; B4: inactive: -0.229.
Regarding B5, the “mRNA display binding score” value was inactive: -0.302.
Regarding B6, the “mRNA display binding score” value is inactive: -0.0868.
